Data taken from PMC4336329 (PLoS ONE, 2015).
Screen size: about 310,000 compounds; about 2,200 (0.71%) showed an effect of 50% or more. The effect is printed as a negative number. Some of the results follow.

Target: human ether-à-go-go-related gene (hERG) potassium channel (human, UniProt Q12809)
Experiment: primary screen, population patch clamp on CHO cells stably expressing hERG

Sequence of human ether-à-go-go-related gene (hERG) potassium channel (Q12809 whole entry, looked up): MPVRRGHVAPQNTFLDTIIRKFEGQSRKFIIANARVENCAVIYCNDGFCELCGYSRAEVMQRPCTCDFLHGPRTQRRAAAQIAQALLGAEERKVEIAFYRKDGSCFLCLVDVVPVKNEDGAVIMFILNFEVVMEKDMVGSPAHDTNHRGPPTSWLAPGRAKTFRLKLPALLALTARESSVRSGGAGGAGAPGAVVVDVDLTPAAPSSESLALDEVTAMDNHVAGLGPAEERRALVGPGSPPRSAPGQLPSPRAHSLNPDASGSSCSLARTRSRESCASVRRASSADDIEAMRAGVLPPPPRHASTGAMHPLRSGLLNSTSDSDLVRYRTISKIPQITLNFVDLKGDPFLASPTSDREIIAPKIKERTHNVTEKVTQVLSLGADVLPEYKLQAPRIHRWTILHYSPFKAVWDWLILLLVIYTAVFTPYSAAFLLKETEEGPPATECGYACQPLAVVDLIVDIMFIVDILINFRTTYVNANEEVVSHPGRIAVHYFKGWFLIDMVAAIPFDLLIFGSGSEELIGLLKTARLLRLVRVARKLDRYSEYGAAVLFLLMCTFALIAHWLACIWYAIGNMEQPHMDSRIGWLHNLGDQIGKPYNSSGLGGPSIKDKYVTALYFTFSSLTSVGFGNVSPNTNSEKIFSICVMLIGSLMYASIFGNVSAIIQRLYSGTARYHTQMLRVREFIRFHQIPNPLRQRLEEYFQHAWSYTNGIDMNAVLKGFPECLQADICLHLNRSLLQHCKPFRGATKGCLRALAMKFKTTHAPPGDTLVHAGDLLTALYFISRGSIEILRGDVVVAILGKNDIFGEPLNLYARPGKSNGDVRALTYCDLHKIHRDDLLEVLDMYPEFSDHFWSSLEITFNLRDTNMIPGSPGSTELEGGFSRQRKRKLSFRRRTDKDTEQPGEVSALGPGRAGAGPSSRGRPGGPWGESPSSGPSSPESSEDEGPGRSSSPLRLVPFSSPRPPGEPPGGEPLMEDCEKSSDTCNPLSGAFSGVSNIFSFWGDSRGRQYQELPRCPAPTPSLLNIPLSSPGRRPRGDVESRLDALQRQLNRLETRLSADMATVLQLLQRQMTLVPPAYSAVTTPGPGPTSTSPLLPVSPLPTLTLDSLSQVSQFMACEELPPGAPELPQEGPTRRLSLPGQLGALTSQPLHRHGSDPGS

Row | Structure (SMILES) | hERG current change (%, negative = inhibition) at 1uM
1 | Cc1c(NS(=O)(=O)c2cc(C(=O)OCC(=O)N3CCC(C)CC3)ccc2Cl)c(=O)n(-c2ccccc2)n1C | 7.72%
2 | O=C(N/N=C/c1ccccn1)c1ccc(NC(=O)c2ccc(F)cc2)cc1 | 9.84%
3 | COc1ccc(OC)c(NC(=O)C(CC(C)C)NC(=O)C2CCCCC2)c1 (stereo not drawn) | 4.12%
4 | Cl.O=C(NCC(c1cccs1)N1CCOCC1)c1ccccc1NS(=O)(=O)c1cc([N+](=O)[O-])ccc1Cl (stereo not drawn) | -4.36%
5 | CCc1sc(C(=O)NC2CCN(C)CC2)cc1Br | 7.35%
6 | N#C/C(=C\c1cccs1)C(=O)NCc1cccnc1 | -3.89%
7 | Cc1cccc(-n2c(Cc3ccccc3)nnc2SCC(=O)N2CCOCC2)c1 | 7.32%
8 | CCOc1ccc(OCC(=O)N2CCC3(CC2)CC(=O)c2ccccc2O3)cc1 | -56.8%
9 | Cc1cc(=O)oc2cc(N)ccc12 | 2.83%
10 | COC(=O)c1ccc(COc2cccc3c2OC(C)(C)C3)cc1 | 19.2%
11 | CC1(C)NC(=O)N(CC(O)CN2CCCCC2)C1=O (stereo not drawn) | 16.7%
12 | CN(C/C=C/c1ccccc1[N+](=O)[O-])Cc1ccccc1 | -8.37%
13 | C=CCn1c(SCC(=O)N(CC)C2CCS(=O)(=O)C2)nnc1-c1ccccc1 (stereo not drawn) | 8.04%
14 | CN(C(=O)C(C)(C)C)c1ccc(OCC(=O)N2CCc3ccccc3C2)cc1 | 3.93%
15 | CC(=O)Nc1cccc(C(=O)Oc2cccc(C)c2)c1O | 1.42%
16 | CCNc1nc(NCC)n2c(SC(C(=O)Nc3cc(C)ccc3OC)c3ccccc3)nnc2n1 (stereo not drawn) | 7.71%
17 | O=C(O)COc1ccccc1/C=N/NC(=O)COc1ccc(-c2ccccc2)cc1 | 5.25%
18 | O=C(NCCCn1ccnc1)c1noc2c1CCCC2 | -13.4%
19 | NC(=O)C1CCN(c2ccc(S(=O)(=O)N3CCC(Cc4ccccc4)CC3)cn2)CC1 | 19.1%

Row | Structure (SMILES) | hERG current change (%, negative = inhibition) at 1uM
20 | CCN(CC)c1ccc(NC(=O)CNCc2ccccc2Cl)c(C)c1.O=C(O)C(=O)O | 7.25%
21 | Cc1cc(=O)[nH]c(N/N=C/c2cc(C)n(CC(F)(F)F)c2C)n1 | 11.9%
22 | COc1cc2c(cc1OC)C(COc1ccc([N+](=O)[O-])cc1)N(C(C)=O)CC2 (stereo not drawn) | -35.5%
23 | CCSc1nc2sc3c(c2c(=O)n1CC)CCC3 | 14%
24 | CCN1CCN(C(=O)c2cnn3c(C(F)F)cc(-c4ccc(C)cc4)nc23)CC1 | -3.12%
25 | CCOC(=O)/C(C#N)=C\c1cc(OC)c(OC)cc1[N+](=O)[O-] | 17.1%
26 | Cc1c(CC(=O)NCCC(=O)O)c(=O)oc2cc3oc4c(c3cc12)CCCC4 | 22.8%
27 | COc1cccc(NC(=O)CN(C)C(=O)c2ccc(S(=O)(=O)Nc3ccccc3C)cc2)c1 | 3.85%
28 | Cc1cccc(N2C(=O)NC(=O)/C(=C\c3cccn3-c3ccc(Cl)cc3)C2=O)c1 | 1.43%
29 | O=C(COc1ccc(Cl)cc1Cl)NNC(=S)NC(=O)c1ccco1 | 10.8%
30 | O=C(NCCN1CCOCC1)C1CCN(S(=O)(=O)N2CCCC2)CC1 | 11.7%
31 | CS(=O)(=O)c1ccc(N2CCN(c3ccccn3)CC2)c([N+](=O)[O-])c1 | -13.3%
32 | CCC(C)NC(=O)c1csc2c1CCCCC2 (stereo not drawn) | 16.1%
33 | Clc1ccccc1OCCCCn1ccnc1 | 2.87%
34 | O=C(Cc1cccc2ccccc12)NCCc1ccccc1 | 11.1%
35 | O=C(O)c1ccc2c(c1)C(=O)N(Cc1ccccc1)C2=O | 4.17%
36 | CCOc1ccccc1N/C(=C(/C(Cl)=C(Cl)Cl)[N+](=O)[O-])n1cncn1 | 2.1%
37 | O=C(NN=C1CCCC1)C1COc2ccccc2O1 (stereo not drawn) | 12.3%
38 | COc1ccc2nc(-c3ccco3)c(-c3ccco3)nc2c1 | 13.7%

Row | Structure (SMILES) | hERG current change (%, negative = inhibition) at 1uM
39 | CC1CCC2(CC1)SCC(=O)N2c1ccc(F)cc1 (stereo not drawn) | 9.6%
40 | Cc1nn(-c2ccccc2)c(C)c1C(=O)OCC(N)=O | 12.2%
41 | Cc1ccc(C(=O)ON=C2CCN(c3ccc([N+](=O)[O-])cc3)CC2)cc1 | -21.2%
42 | CCSC1=NCCN1C(=O)c1c(-c2ccccc2Cl)noc1C | 7.53%
43 | O=C(c1ccc(Oc2cc(Cl)cc(Cl)c2)o1)N1CCCCC1 | -3.92%
44 | Cc1ccc(C2CC2c2n[nH]c(=S)n2-c2cccc(C)c2)cc1 (stereo not drawn) | 11.4%
45 | O=C(C1CCCN(S(=O)(=O)c2ccccc2[N+](=O)[O-])C1)N1CCCC1 (stereo not drawn) | 3.58%
46 | CCOC(=O)C1C(=O)OC2(CCCC2)C1C(=O)OCC (stereo not drawn) | -6.03%
47 | Cc1cccn2cc(-c3ccc(S(=O)(=O)N4CCCCC4)cc3)nc12 | 13.5%
48 | CCOC(=O)c1ccc(-n2c(CCC(=O)O)ccc2-c2ccccc2)cc1 | 9.49%
49 | CC1(C)Cc2c(sc3nc(=S)[nH]c(N)c23)CO1 | 17.6%
50 | CCN(CC)CCN1C(=O)c2ccccc2NC1c1ccccc1F (stereo not drawn) | -18.6%
51 | CCOC(=O)Cc1csc(NC(=O)Cc2ccccc2[N+](=O)[O-])n1 | 15%
52 | Cc1ccc(S(=O)(=O)N(C(=O)c2ccncc2)c2ccc(OC(=O)c3ccncc3)cc2)c(C)c1 | 1.2%
53 | CCOc1cc(/C=N/NC(=O)CSc2nncn2C)ccc1OCC(N)=O | 14.9%
54 | CCOc1ncccc1C(=O)N1CCN(S(=O)(=O)c2ccc3ccccc3c2)CC1 | -2.89%
55 | C=CCOC(=O)CN1C(=O)c2ccccc2C1=O | 10.1%
56 | COc1ccc(/C=C(\C#N)C(=O)NCc2cccnc2)cc1OC | 8.84%
57 | CCCCCNC(=O)c1ccc2c(c1)ncn2-c1ccc(OC)cc1 | -7.59%
